# Laboratory results reported in PubChem BioAssay AID1347120 (National Center for Advancing Translational Sciences (NCATS), 2019).
# About 930 (0.24%) of roughly 390,000 compounds were called active. This list was built around the results that the source calls inconclusive (neither active nor inactive); the mix of calls is not that of the screen. The call rests on the fitted dose curve; in most records, active means well fitted activation curve with a large enough effect; inconclusive means small, poorly fitted or top-dose-only effect; inactive means no such curve, though single readings can be large or run the other way. Where the call is inconclusive, the potency comes from a doubtful curve fit.
# Assay: qHTS for Suppressors of FUS Proteinopathy: Primary screen using FUS-linked yeast assay; further: nearly all actives have a fitted effect of over 55% in size;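 on growth rescue (activation): plate controls were DMSO vehicle for no effect and reference control for full effect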
# Conditions: S. cerevisiae FUS-expressing, OD600, 24 h; Potency: growth rescue; growth rescue (activation): at 76.6 µM (top of the series)
# In short: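 Quantitative HTS measuring growth restoration of FUS-toxic yeast. Galactose-induced cells (OD 0.005) were exposed 24hr at 30C to compounds at several concentrations, then absorbance at 600 nm was recorded.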
# Potency means the concentration at half of the fitted maximal effect; tags describe the fitted curve by direction and shape.
SMILES,Potency,growth rescue (activation)
CC1CCCC(C)N1C(=O)COC(=O)c1cc(-c2cccs2)nn1-c1ccccc1 (stereo unspecified),"inconclusive: 22.4 µM [activator, partial curve, poor fit]",
Cc1ccc(-c2nnc(SCC(=O)NC(C)(C)C)nc2-c2ccc(C)cc2)cc1,"inconclusive: 12.6 µM [activator, partial curve]",
COc1ccc(-c2nc3ccncc3[nH]2)cc1OC,,inactive: 12.3%
CCOc1ccc(C(=O)N(Cc2nc(-c3cccc(C)c3)no2)C(C)C)cc1,,inactive: 30.2%
CCOC(=O)C1CCN(C(=O)c2ccc3c(=O)n4nc(Nc5ccccc5CC)sc4nc3c2)CC1,"inconclusive: 31.6 µM [activator, partial curve, poor fit]",
O=C(Nc1cccc(-c2nnco2)c1)c1cccs1,,inactive: 13.7%
Cc1nn(-c2ccc(N3CCCCC3)nn2)c(C)c1CCC(=O)NCc1ccccc1,,inactive: 12.2%
CC(=O)Nc1ccc(C(=O)N2CCCCC2c2cc(C(=O)Nc3ccccc3)no2)cc1 (stereo unspecified),,inactive: 16.3%
Cn1c(NN)nc2sc3c(c2c1=O)CCC3,"inconclusive: 44.7 µM [activator, single point]",
CCOC(=O)c1cc(-c2ccccc2)n(CCCC(=O)Nc2cccc(C)c2)c1C,"inconclusive: 15.8 µM [activator, partial curve, poor fit]",
COc1ccc(-c2nc(CSCC(=O)NC3CCCc4ccccc43)c(C)o2)cc1OC (stereo unspecified),"inconclusive: 17.8 µM [activator, single point]",
Cc1ccc(Cc2c(C)[nH]c(=S)[nH]c2=O)cc1,,inactive: -0.193%
COc1ccccc1NC(=O)Nc1nc(C(N)Cc2ccc(Cl)cc2)cs1 (stereo unspecified),"inconclusive: 31.6 µM [activator, single point]",
CC(C)C[C@H]1CN([C@@H](CC(C)C)CN2CCC[C@@H]2CN2C(=S)NC[C@@H]2Cc2ccc(O)cc2)C(=S)N1CCc1ccccc1,"inconclusive: 35.5 µM [activator, single point]",
O=C(Cn1nnc(-c2ccccc2)n1)Nc1cccc(S(=O)(=O)N2CCCC2)c1,"inconclusive: 28.2 µM [activator, single point]",
O=C(Nc1ccc(C(F)(F)F)cc1)c1cc(S(=O)(=O)N2CCCc3ccccc32)ccc1F,"inconclusive: 28.2 µM [activator, partial curve, poor fit]",
COC(=O)c1ccccc1NC(=O)CNc1ccc(F)c(S(=O)(=O)N2CCOCC2)c1,"inconclusive: 31.6 µM [activator, single point]",
O=C(CSc1nnc(Nc2ccccc2F)s1)NCc1ccco1,"inconclusive: 22.4 µM [activator, single point]",
CC1CCN(S(=O)(=O)c2ccc(NC(=O)Cc3cccs3)cc2)CC1,"inconclusive: 22.4 µM [activator, partial curve, poor fit]",
CCN(Cc1ccccc1)C(=O)C1CCC(CNS(=O)(=O)c2ccc3c(c2)CCCC(=O)N3)CC1 (stereo unspecified),"inconclusive: 14.1 µM [activator, partial curve, poor fit]",
Cc1ccc(NC(=O)Cn2c(=O)n(-c3ccccc3)c(=O)c3ccc(C(=O)NCc4ccc5c(c4)OCO5)cc32)cc1,,inactive: -9.42%

SMILES,Potency,growth rescue (activation)
CN1CCc2c(sc3c2c(=O)n(-c2ccccc2)c2nnc(SCc4ccccc4)n32)C1,"inconclusive: 28.2 µM [activator, partial curve, poor fit]",
Cc1c(C(=O)N2CCc3ccccc3C2)sc2nc(-c3ccccc3)cn12,"inconclusive: 7.94 µM [activator, partial curve, poor fit]",
Cc1ccc(S(=O)(=O)c2nnn3c2nc(N2CCCC(C)C2)c2cc(Cl)ccc23)cc1C (stereo unspecified),,inactive: -15.7%
Cc1ccc(NC(=S)NNC(=O)CSc2nc3sc4c(c3c(=O)n2-c2ccccc2)CCCC4)cc1,"inconclusive: 10 µM [activator, full curve, poor fit]",
O=c1c2c3nc4ccccc4nc3n(/N=C/c3ccccn3)c2ncn1-c1ccccc1,,inconclusive: -112% [activator]
C#CCOCCOCCOCCNc1nc(N2CCN(C(=O)CCCCCCCCCCNC(=O)Cn3cc(CCCCCN)nn3)CC2)nc(N2CCN(C(=O)CCCCCCCCCCNC(=O)[C@H](CO)n3cc(CCCSC)nn3)CC2)n1,"inconclusive: 15.8 µM [activator, partial curve, poor fit]",
Clc1ccccc1/C=C/c1nc(-c2cccnc2)no1,,inactive: -11%
C/C(=N/NC(=O)CSc1nnc(SCc2ccc(C)cc2)s1)c1cccc(O)c1,,inactive: 19.9%
CC(=O)N(C)c1ccc(NC(=S)NC(=O)/C=C/c2ccco2)cc1,active: 35.5 µM,
COc1ccccc1C=NNC(=O)CSc1nc2ccccc2n1Cc1ccc(Cl)cc1,"inconclusive: 25.1 µM [activator, single point]",
Cc1cc(C(=O)CN2C(=O)NC(C)(CC(C)C)C2=O)c(C)n1-c1ccc2c(c1)OCO2 (stereo unspecified),"inconclusive: 28.2 µM [activator, single point]",
CCCSc1ccc([C@@H]2[C@@H]3C(=O)N(CC)C(=O)[C@@H]3[C@]3(C(=O)OC)CCCCN23)cc1OC,"inconclusive: 31.6 µM [activator, single point]",
Cc1ccccc1-c1cc2nc(Oc3ccc4c(c3)OCO4)n(C)c(=O)c2s1,"inconclusive: 22.4 µM [activator, partial curve, poor fit]",
CC(C)(C)OC(=O)N1CCC2(CC1)Oc1ccc(Cl)cc1C(=O)C21CC(c2ccc(Cl)cc2)=NO1 (stereo unspecified),"inconclusive: 28.2 µM [activator, single point]",
CC(C)(C)C(=O)O[C@@H]1CCC[C@@]2(C(=O)N(Cc3ccccc3)c3ccccc32)[C@H]1NC(=O)CCc1ccccc1,"inconclusive: 14.1 µM [activator, partial curve, poor fit]",
COc1ccccc1NC(=O)Cn1nc2c3cc(F)ccc3n(Cc3cccc(C)c3)cc-2c1=O,"inconclusive: 39.8 µM [activator, single point]",
Cc1ccc(NC(=O)C2CCN(S(=O)(=O)c3ccc(C(C)(C)C)cc3)CC2)cc1S(=O)(=O)N1CCOCC1,"inconclusive: 25.1 µM [activator, single point]",
Cc1cc(C)cc(NS(=O)(=O)c2c(C)nc3scc(C)n3c2=O)c1,,inactive: 26.2%
CCCC1(c2ccccc2)NC(=O)N(CC(=O)NCc2ccc(C)cc2)C1=O (stereo unspecified),"inconclusive: 20 µM [activator, single point]",
Cc1ccc(C(c2nnnn2CC2CCCO2)N2CCN(c3cccc(C)c3C)CC2)cc1 (stereo unspecified),"inconclusive: 25.1 µM [activator, partial curve, poor fit]",
COc1ccc(NC(=O)c2cc(C3CCCCN3C(=O)c3ccc(Cl)cc3)on2)c(C)c1 (stereo unspecified),"inconclusive: 39.8 µM [activator, single point]",

SMILES,Potency,growth rescue (activation)
Cc1cc2c(cc1NS(=O)(=O)c1ccc(NC(=O)CC(C)C)cc1)n(C)c(=O)c(=O)n2C,,inactive: 20.6%
COc1ccc(NC(=S)NNc2ccc([N+](=O)[O-])cc2S(=O)(=O)Nc2ccc(C)cc2C)cc1,"inconclusive: 50.1 µM [activator, partial curve, poor fit]",
COC(=O)[C@@]12CCCCC3=C1N(CCC3)C(=O)[C@H]2CC(=O)NCC1CCCCC1,,inactive: 6.09%
O=C(Nc1ccc([N+](=O)[O-])cc1)c1ccccc1F,,inactive: -4.54%
COc1cc2nc3n(c(=O)c2cc1OC)-c1ncccc1C(=O)NC3Cc1ccccc1 (stereo unspecified),"inconclusive: 31.6 µM [activator, single point]",
COc1ccc(CCNC(=O)CCc2c(C)nc3c4cccnc4nn3c2C)cc1OC,,inactive: -24.1%
O=C(CCc1cccc(Cl)c1)N1CCCC(Nc2ccccc2)C1 (stereo unspecified),"inconclusive: 17.8 µM [activator, partial curve]",
Cc1nnsc1C(=O)Oc1ccc(Cl)cc1,,inactive: -12.6%
O=S(=O)(NC1CCC(NS(=O)(=O)c2c(F)cccc2F)CC1)c1ccc2c(c1)OCCO2 (stereo unspecified),"inconclusive: 20 µM [activator, partial curve, poor fit]",
O=C(NCc1ccccc1)C(=O)NCC1OCCN1S(=O)(=O)c1ccc2c(c1)OCCO2 (stereo unspecified),"inconclusive: 31.6 µM [activator, single point]",
CSc1ccccc1C(=O)Nc1ccccc1C,,inactive: -7.95%
COC(=O)c1c(NC(=O)CS(=O)(=O)c2ccccc2)sc(C)c1C,,inactive: 30.3%
CCn1c(-c2cc(-c3cccc(OC)c3)nc3ccccc23)n[nH]c1=S,"inconclusive: 44.7 µM [activator, partial curve, poor fit]",
O=C(CN1C(=O)S/C(=C\C=C\c2ccccc2)C1=O)NC1CCS(=O)(=O)C1 (stereo unspecified),"inconclusive: 25.1 µM [activator, partial curve, poor fit]",
COc1ccc(S(=O)(=O)N(CC(=O)N/N=C/c2cccs2)c2cc(C)cc(C)c2)cc1OC,"inconclusive: 31.6 µM [activator, partial curve, poor fit]",
CC12CCC(C(=O)N3CCc4ccccc43)(CC1=O)C2(C)C (stereo unspecified),,inactive: 6.68%
Cc1cc(C(=O)N2CCN(c3cccc(Cl)c3)CC2)c2c(C)nn(-c3ccccc3Cl)c2n1,"inconclusive: 5.62 µM [activator, full curve]",
Cc1coc2cc3oc(=O)c(CCC(=O)N4C[C@H]5C[C@@H](C4)c4cccc(=O)n4C5)c(C)c3cc12,"inconclusive: 11.2 µM [activator, single point]",
Cc1nn(-c2ccccc2)c(C)c1C(=O)OCC(O)=C(C#N)c1nc2ccccc2[nH]1,"inconclusive: 20 µM [activator, partial curve, poor fit]",
